Six compounds from patent publication US20250368649A1, “TETRAHYDROPYRIDOPYRIMIDINE PAN-KRAS INHIBITORS” (Mirati Therapeutics, Inc., priority 2022, published 2025) can be followed below.

The target of experiment [1] is KRas WT (Homo sapiens, UniProt P01116). The experiment can be described thus: KRas binding assay (TR-FRET displacement), KRas WT. The following applies: single point, 10 nM compound.
In experiment [2] the target is KRas G12A (Homo sapiens, UniProt P01116, G12A). The experiment is classed as binding. Conditions: single point, 10 nM compound, read-out: Binding to KRas (% inhibition at 10 nM) G12A.
In experiment [3] the target is KRas G12C (Homo sapiens, UniProt P01116, G12C). Type of experiment: binding. Conditions: single point, 10 nM compound, read-out: Binding to KRas (% inhibition at 10 nM) G12C.
The target in experiment [4] is KRas G12S (Homo sapiens, UniProt P01116, G12S). Type of experiment: binding. Conditions: single point, 10 nM compound, read-out: Binding to KRas (% inhibition at 10 nM) G12S.
Experiment [5] has as its target KRas G13D (Homo sapiens, UniProt P01116, G13D). The experiment is classed as binding. Conditions: single point, 10 nM compound, read-out: Binding to KRas (% inhibition at 10 nM) G13D.
Experiment [6] addresses KRas Q61H (Homo sapiens, UniProt P01116, Q61H). The experiment can be described thus: KRas binding assay (TR-FRET displacement), KRas Q61H. The following applies: single point, 10 nM compound. In general terms: In TR-FRET formats the signal depends on donor and acceptor labels being close together.
Experiment [7] relates to MKN1 cells. Description: Inhibition of KRas-mediated phosphorylation of ERK (Cisbio HTRF pERK), MKN1 cells. Conditions: Homo sapiens, MKN-1, 3 hour compound incubation. Type of experiment: cell-based. In short, it runs like this: (§1)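 On the first day, plate 6,000 cells into each well in RPMI medium with 10% fetal bovine serum.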
In experiment [8] the test system is PSN1 cells. The experiment can be described thus: Inhibition of KRas-mediated phosphorylation of ERK (Cisbio HTRF pERK), PSN1 cells. Type of experiment: cell-based. Conditions: Homo sapiens, PSN1, 3 h, 3 hour compound incubation, Cisbio pERK HTRF. In short, it runs like this:
as §1

For experiment [9], the system named is ASPC1 cells. Description: Inhibition of KRas-mediated phosphorylation of ERK (Cisbio HTRF pERK), ASPC1 cells. Type of experiment: cell-based. Conditions: Homo sapiens, AsPC-1 cells; for IC50: ASPC1, 3 h, 3 hr compound incubation, Cisbio pERK HTRF; for inhibition at 0.1 µM: ASPC1, single point at 100 nM, 3 hrs compound incubation.
Experiment [10] relates to H727 cells. Description: Inhibition of KRas-mediated phosphorylation of ERK (Cisbio HTRF pERK), H727 cells. The experiment is classed as cell-based. Conditions: Homo sapiens; for IC50: NCI-H727, 3 h, 3 hr compound incubation, Cisbio pERK HTRF; for inhibition at 0.1 µM: NCI-H727, single point at 100 nM, 3 hrs compound incubation.
Experiment [11] deals with A549 cells. The experiment can be described thus: Inhibition of KRas-mediated phosphorylation of ERK (Cisbio HTRF pERK), A549 cells. Type of experiment: cell-based. The following applies: Homo sapiens; for IC50: A549, 3 h, 3 hr compound incubation, Cisbio pERK HTRF; for inhibition at 0.1 µM: single point at 100 nM, 3 hrs compound incubation.
Experiment [12] relates to H460 cells. The experiment can be described thus: Inhibition of KRas-mediated phosphorylation of ERK (Cisbio HTRF pERK), H460 cells. The experiment is classed as cell-based. The following applies: Homo sapiens; for IC50: NCI-H460, 3 h, 3 hr compound incubation, Cisbio pERK HTRF; for inhibition at 0.1 µM: NCI-H460, single point at 100 nM, 3 hrs compound incubation.
In experiment [13] the test system is HCT116 cells. The experiment can be described thus: Inhibition of KRas-mediated phosphorylation of ERK (Cisbio HTRF pERK), HCT116 cells. The experiment is classed as cell-based. Conditions: Homo sapiens; for IC50: HCT-116, 3 h, 3 hr compound incubation, Cisbio pERK HTRF; for inhibition at 0.1 µM: HCT-116, single point at 100 nM, 3 hrs compound incubation.
The subject of experiment [14] is H358 cells. Description: Inhibition of KRas-mediated phosphorylation of ERK (Cisbio HTRF pERK), H358 cells. The experiment is classed as cell-based. Conditions: Homo sapiens; for IC50: NCI-H358, 3 h, 3 hr compound incubation, Cisbio pERK HTRF; for inhibition at 0.1 µM: NCI-H358, single point at 100 nM, 3 hrs compound incubation.

As for `CCc1c(F)ccc2cc(O)cc(N3CCc4c(nc(OC[C@@]56CCCN5C[C@H](F)C6)nc4N4CCCn5nc(C(=O)N6CC7CC(C7)C6)cc5C4)C3)c12` [Example 330, 3-azabicyclo[3.1]heptan-3-yl(5-(7-(8-ethyl-7-fluoro-3-hydroxynaphthalen-1-yl)-2-(((2R,7aS)-2-fluorohexahydro-1H-pyrrolizin-7a-yl)methoxy)-5,6,7,8-tetrahydropyrido[3,4-d]pyrimidin-4-yl)-5,6,7,8-tetrahydro-4H-pyrazolo[1,5-a][1,4]diazepin-2-yl)methanone], the inhibition – broadly, the relative decrease from the control value, in per cent – at 0.01 µM was found to be 91% in [1]; 87% in experiment [2]; 97% in experiment [3]; 96% in [4]; 91% in [5]; 91% in [6]. Also, the IC50 – broadly, the concentration that inhibits the measured activity by half – in experiment [7] came to 14.5 nM; in experiment [8], 6080 nM; in [9] it was 7 nM; in experiment [10], 16 nM; in experiment [11], 8 nM; in [12], 30 nM. The concentration for half-maximal inhibition (IC50) stood at 117 nM in [13] and 8 nM in experiment [14]. Also, the inhibition at 0.1 µM in experiment [9] stood at 94%; in experiment [10], 77%; in [11], 80%; in [12] it was 60%; in experiment [13], 27%; in experiment [14], 98%.

As to `CCc1c(F)ccc2cc(O)cc(N3CCc4c(nc(OC[C@@]56CCCN5C[C@H](F)C6)nc4N4CCCn5nc(C(=O)N6CCC7CC7C6)cc5C4)C3)c12` (stereo partly drawn) [Example 332, 3-azabicyclo[4.1.0]heptan-3-yl(5-(7-(8-ethyl-7-fluoro-3-hydroxynaphthalen-1-yl)-2-(((2R,7aS)-2-fluorohexahydro-1H-pyrrolizin-7a-yl)methoxy)-5,6,7,8-tetrahydropyrido[3,4-d]pyrimidin-4-yl)-5,6,7,8-tetrahydro-4H-pyrazolo[1,5-a][1,4]diazepin-2-yl)methanone], the inhibition at 0.01 µM is 93% in [1]; 94% in experiment [2]; 98% in experiment [3]; 97% in experiment [4]; 93% in experiment [5]; 95% in [6]. Moreover, the IC50 in experiment [7] was found to be 10.4 nM; in experiment [8], 6240 nM; in [9] it was 5 nM; in experiment [10], 9 nM; in [11], 28 nM; in [12] it was 43 nM. Further, the IC50 in experiment [13] turned out to be 221 nM; in experiment [14], 6 nM. Besides, the inhibition at 0.1 µM in experiment [11] was 87%; in experiment [12] it was 80%; in [13] it was 38%; in experiment [14], 100%.

As to `CCc1c(F)ccc2cc(O)cc(N3CCc4c(nc(OC[C@@]56CCCN5C[C@H](F)C6)nc4N4CCCn5nc(C(=O)N6CC7CCC(C6)O7)cc5C4)C3)c12` [Example 333, 8-oxa-3-azabicyclo[3.2.1]octan-3-yl(5-(7-(8-ethyl-7-fluoro-3-hydroxynaphthalen-1-yl)-2-(((2R,7aS)-2-fluorohexahydro-1H-pyrrolizin-7a-yl)methoxy)-5,6,7,8-tetrahydropyrido[3,4-d]pyrimidin-4-yl)-5,6,7,8-tetrahydro-4H-pyrazolo[1,5-a][1,4]diazepin-2-yl)methanone], the inhibition at 0.01 µM worked out at 98% in experiment [1]; 98% in experiment [2]; 99% in [3]; 99% in [4]; 98% in experiment [5]; 98% in [6]. Besides, the IC50 in experiment [7] was 2.6 nM; in [8], 3660 nM; in experiment [9] it was 2 nM; in experiment [10] it was 8 nM; in [11], 8 nM; in [12], 10 nM. Further, the half-inhibitory concentration (IC50) in [13] was 32 nM; in experiment [14], 2 nM. Also, the inhibition at 0.1 µM in experiment [9] was 102%; in experiment [10], 89%; in experiment [11] it was 74%; in experiment [12], 98%; in experiment [13] it was 88%; in [14] it was 100%.

As for `CCc1c(F)ccc2cc(O)cc(N3CCc4c(nc(OC[C@@]56CCCN5C[C@H](F)C6)nc4N4CCCn5nc(C(=O)N6CCC7CC6CO7)cc5C4)C3)c12` (stereo partly drawn) [Example 337, 6-oxa-2-azabicyclo[3.2.1]octan-2-yl(5-(7-(8-ethyl-7-fluoro-3-hydroxynaphthalen-1-yl)-2-(((2R,7aS)-2-fluorohexahydro-1H-pyrrolizin-7a-yl)methoxy)-5,6,7,8-tetrahydropyrido[3,4-d]pyrimidin-4-yl)-5,6,7,8-tetrahydro-4H-pyrazolo[1,5-a][1,4]diazepin-2-yl)methanone], the inhibition at 0.01 µM in experiment [1] amounted to 97%; in experiment [2], 97%; in experiment [3], 99%; in experiment [4], 99%; in [5], 96%; in experiment [6], 98%. In addition, the 50% inhibitory concentration (IC50) in experiment [7] is 2.9 nM; in [8] it was 3900 nM; in [9], 2 nM; in experiment [10] it was 3 nM; in experiment [11], 14 nM; in experiment [12] it was 22 nM. The IC50 in experiment [13] worked out at 69 nM; in experiment [14], 2 nM. Also, the inhibition at 0.1 µM in [9] stood at 99%; in experiment [10], 80%; in experiment [11], 94%; in experiment [12] it was 96%; in experiment [13] it was 73%; in experiment [14], 106%.

Regarding `CCc1c(F)ccc2cc(O)cc(N3CCc4c(nc(OC[C@@]56CCCN5C[C@H](F)C6)nc4N4CCCn5nc(C(=O)NC)c(F)c5C4)C3)c12` [Example 362, 5-(7-(8-ethyl-7-fluoro-3-hydroxynaphthalen-1-yl)-2-(((2R,7aS)-2-fluorohexahydro-1H-pyrrolizin-7a-yl)methoxy)-5,6,7,8-tetrahydropyrido[3,4-d]pyrimidin-4-yl)-3-fluoro-N-methyl-5,6,7,8-tetrahydro-4H-pyrazolo[1,5-a][1,4]diazepine-2-carboxamide], the inhibition at 0.01 µM in experiment [1] stood at 96%; in [2], 97%; in [3], 99%; in experiment [4] it was 99%; in experiment [5], 95%; in [6], 95%. In addition, the IC50 in [7] was determined as 11.2 nM; in experiment [8], 2640 nM; in experiment [9] it was 5 nM; in experiment [10], 11 nM; in experiment [11], 20 nM; in [12], 56 nM. Besides, the IC50 in experiment [13] was 172 nM; in experiment [14], 7 nM. Also, the inhibition at 0.1 µM in experiment [12] was 60%; in [13], 27%.

On to `CCc1c(F)ccc2cc(O)cc(N3CCc4c(nc(OC[C@@]56CCCN5C[C@H](F)C6)nc4N4CCCn5nc(C(=O)NC(C)C)c(F)c5C4)C3)c12` [Example 366, 5-(7-(8-ethyl-7-fluoro-3-hydroxynaphthalen-1-yl)-2-(((2R,7aS)-2-fluorohexahydro-1H-pyrrolizin-7a-yl)methoxy)-5,6,7,8-tetrahydropyrido[3,4-d]pyrimidin-4-yl)-3-fluoro-N-isopropyl-5,6,7,8-tetrahydro-4H-pyrazolo[1,5-a][1,4]diazepine-2-carboxamide], for which the inhibition at 0.01 µM in [1] came to 94%; in experiment [2], 95%; in [3] it was 99%; in experiment [4], 98%; in [5], 94%; in [6], 95%. Moreover, the IC50 in experiment [7] stood at 4.6 nM; in [8], 4630 nM; in experiment [9], 4 nM; in experiment [10] it was 4 nM; in experiment [11] it was 19 nM; in experiment [12], 35 nM. The IC50 in experiment [13] was 92 nM; in [14], 4 nM. Also, the inhibition at 0.1 µM in experiment [12] amounted to 59%; in experiment [13] it was 37%.
